Residue numbers refer to the chain shown, from its start. The list shows a part of the results.
T1: RBFOX1 RRM RbFoxmut (Fox-RRM*) (Homo sapiens, UniProt Q9NWB1 109-208, R118D;E147R;N151S;E152T)
T1 sequence: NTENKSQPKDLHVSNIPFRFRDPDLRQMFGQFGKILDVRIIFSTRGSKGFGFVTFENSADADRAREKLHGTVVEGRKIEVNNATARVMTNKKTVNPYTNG

B1: GAAUGAC (DNA:RNA)
RNA: GGGAGACCGGAAUUCAGAUUGUCCGAAUGACUUAAAUCCCGUCGUAGCCACCA
DNA 1: CAATCTGAATTCCGGTCTCCC
DNA 2: TGGTGGCTACGACGGGATT
B2: CGCGGGG (DNA:RNA)
RNA: B1 RNA with G25C, A26G, A27C, U28G, A30G, C31G
DNA 1: CAATCTGAATTCCGGTCTCCC
DNA 2: TGGTGGCTACGACGGGATT
B3: GGUGCGC (DNA:RNA)
RNA: B1 RNA with A26G, A27U, U28G, G29C, A30G
DNA 1: CAATCTGAATTCCGGTCTCCC
DNA 2: TGGTGGCTACGACGGGATT
B4: UCGUGAG (DNA:RNA)
RNA: B1 RNA with G25U, A26C, A27G, C31G
DNA 1: CAATCTGAATTCCGGTCTCCC
DNA 2: TGGTGGCTACGACGGGATT
B5: GGGAUUU (DNA:RNA)
RNA: B1 RNA with A26G, A27G, U28A, G29U, A30U, C31U
DNA 1: CAATCTGAATTCCGGTCTCCC
DNA 2: TGGTGGCTACGACGGGATT
B6: UUUGUGG (DNA:RNA)
RNA: GGGAGACCGGAAUUCAGAUUGUCCUUUGUGGUUAAAUCCCGUCGUAGCCACCA
DNA 1: CAATCTGAATTCCGGTCTCCC
DNA 2: TGGTGGCTACGACGGGATT
B7: GAACGCA (DNA:RNA)
RNA: B1 RNA with U28C, A30C, C31A
DNA 1: CAATCTGAATTCCGGTCTCCC
DNA 2: TGGTGGCTACGACGGGATT
B8: AUCGCGU (DNA:RNA)
RNA: B6 RNA with U25A, U27C, U29C, G31U
DNA 1: CAATCTGAATTCCGGTCTCCC
DNA 2: TGGTGGCTACGACGGGATT
B9: GCCGCGG (DNA:RNA)
RNA: B6 RNA with U25G, U26C, U27C, U29C
DNA 1: CAATCTGAATTCCGGTCTCCC
DNA 2: TGGTGGCTACGACGGGATT
B10: CAAGUAU (DNA:RNA)
RNA: B1 RNA with G25C, U28G, G29U, C31U
DNA 1: CAATCTGAATTCCGGTCTCCC
DNA 2: TGGTGGCTACGACGGGATT
B11: GGUCUAC (DNA:RNA)
RNA: B1 RNA with A26G, A27U, U28C, G29U
DNA 1: CAATCTGAATTCCGGTCTCCC
DNA 2: TGGTGGCTACGACGGGATT
B12: GGAGUGU (DNA:RNA)
RNA: B6 RNA with U25G, U26G, U27A, G31U
DNA 1: CAATCTGAATTCCGGTCTCCC
DNA 2: TGGTGGCTACGACGGGATT
B13: UUAAAGA (DNA:RNA)
RNA: B6 RNA with U27A, G28A, U29A, G31A
DNA 1: CAATCTGAATTCCGGTCTCCC
DNA 2: TGGTGGCTACGACGGGATT
B14: AUCAUAG (DNA:RNA)
RNA: B6 RNA with U25A, U27C, G28A, G30A
DNA 1: CAATCTGAATTCCGGTCTCCC
DNA 2: TGGTGGCTACGACGGGATT
B15: AGACCUU (DNA:RNA)
RNA: B1 RNA with G25A, A26G, U28C, G29C, A30U, C31U
DNA 1: CAATCTGAATTCCGGTCTCCC
DNA 2: TGGTGGCTACGACGGGATT
B16: UGGACGC (DNA:RNA)
RNA: B6 RNA with U26G, U27G, G28A, U29C, G31C
DNA 1: CAATCTGAATTCCGGTCTCCC
DNA 2: TGGTGGCTACGACGGGATT
B17: UCGGGUG (DNA:RNA)
RNA: B6 RNA with U26C, U27G, U29G, G30U
DNA 1: CAATCTGAATTCCGGTCTCCC
DNA 2: TGGTGGCTACGACGGGATT
B18: UGAUCUA (DNA:RNA)
RNA: B1 RNA with G25U, A26G, G29C, A30U, C31A
DNA 1: CAATCTGAATTCCGGTCTCCC
DNA 2: TGGTGGCTACGACGGGATT
B19: CAACUGG (DNA:RNA)
RNA: B6 RNA with U25C, U26A, U27A, G28C
DNA 1: CAATCTGAATTCCGGTCTCCC
DNA 2: TGGTGGCTACGACGGGATT
B20: AAUAUUC (DNA:RNA)
RNA: B1 RNA with G25A, A27U, U28A, G29U, A30U
DNA 1: CAATCTGAATTCCGGTCTCCC
DNA 2: TGGTGGCTACGACGGGATT

The binders below were run against T1, RBFOX1 RRM RbFoxmut (Fox-RRM*) (assay: EMSA; HiTS-Eq, 1 nM pool, 10 min; buffer printed only for the single-RNA assays: 10 mM Tris pH 7.5, 150 mM NaCl, 3.4 mM EDTA, 0.001% NP-40, 30 C). Details: tags: His6 N-terminal (pET28a); label: 5' 32P.
Method in brief: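 Purified wild-type or mutant RbFox RRM at increasing concentrations was equilibrated with 1 nM of 5′-radiolabelled RNA carrying 7 randomized nucleotides for 10 min in 50 µL. Unbound RNA was separated by 8% native PAGE and sequenced. Relative association constants came from read-count changes of each RNA species compared with the control reaction, normalised to the cognate motif.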

Binder	binding signal
B1	0.829 KA relative to UGCAUGU
B2	0.0735 KA relative to UGCAUGU
B3	0.0984 KA relative to UGCAUGU
B4	0.147 KA relative to UGCAUGU
B5	0.0579 KA relative to UGCAUGU
B6	0.106 KA relative to UGCAUGU
B7	0.171 KA relative to UGCAUGU
B8	0.165 KA relative to UGCAUGU
B9	0.0996 KA relative to UGCAUGU
B10	0.126 KA relative to UGCAUGU
B11	0.0853 KA relative to UGCAUGU
B12	0.215 KA relative to UGCAUGU
B13	0.0655 KA relative to UGCAUGU
B14	0.152 KA relative to UGCAUGU
B15	0.0711 KA relative to UGCAUGU
B16	0.0795 KA relative to UGCAUGU
B17	0.175 KA relative to UGCAUGU
B18	0.0664 KA relative to UGCAUGU
B19	0.0703 KA relative to UGCAUGU
B20	0.0803 KA relative to UGCAUGU

Reference: PMC9911399, “Two distinct binding modes provide the RNA-binding protein RbFox with extraordinary sequence specificity”
